From the supplement of paper PMC9174493
The other results are listed elsewhere or left out. Single values of this set are uncertain. Values with irradiation are relative to irradiated vehicle.

Experiments:
[1] = tested on: A549-Dual; assay: NF-kB reporter (SEAP) activity, viability-corrected, relative to vehicle (fold change vs vehicle); higher = more activation of STING-IRF / NF-kB immune response reporter
[2] = tested on: A549-Dual; assay: ISRE reporter (Lucia luciferase) activity, viability-corrected, relative to vehicle (fold change vs vehicle); higher = more activation of STING-IRF / NF-kB immune response reporter
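For NF-kB reporter (SEAP) activity, viability-corrected, relative to vehicle in this document: viability correction based on the alamar blue assay, with concentrations leaving 10% survival or less dropped.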

Structure (SMILES)	NF-kB reporter ([1]; 0.1 µM, irradiation: 8 Gy/4 fr)	NF-kB reporter ([1]; 0.1 µM, irradiation: none)	NF-kB reporter ([1]; 0.3 µM, irradiation: 8 Gy/4 fr)	NF-kB reporter ([1]; 0.3 µM, irradiation: none)	NF-kB reporter ([1]; 1 µM, irradiation: 8 Gy/4 fr)	NF-kB reporter ([1]; 1 µM, irradiation: none)	NF-kB reporter ([1]; 3 µM, irradiation: 8 Gy/4 fr)	NF-kB reporter ([1]; 3 µM, irradiation: none)	NF-kB reporter ([1]; 10 µM, irradiation: 8 Gy/4 fr)	NF-kB reporter ([1]; 10 µM, irradiation: none)	ISRE reporter ([2]; 0.1 µM, irradiation: 8 Gy/4 fr)	ISRE reporter ([2]; 0.1 µM, irradiation: none)	ISRE reporter ([2]; 0.3 µM, irradiation: 8 Gy/4 fr)	ISRE reporter ([2]; 0.3 µM, irradiation: none)	ISRE reporter ([2]; 1 µM, irradiation: 8 Gy/4 fr)	ISRE reporter ([2]; 1 µM, irradiation: none)	ISRE reporter ([2]; 3 µM, irradiation: 8 Gy/4 fr)	ISRE reporter ([2]; 3 µM, irradiation: none)	ISRE reporter ([2]; 10 µM, irradiation: 8 Gy/4 fr)	ISRE reporter ([2]; 10 µM, irradiation: none)
CC1=C(/C=C/C(C)=C/C=C/C(C)=C/C(=O)Nc2ccc(O)cc2)C(C)(C)CCC1 [Fenretinide]	1.2	1.3	0.944	1.35	1.05	1.76	0.764	1.34	0.597	1.12	1.2	1.64	1.21	1.21	0.841	1.48	0.522	0.535	0.281	0.579
Cc1cn(-c2cc(NC(=O)c3ccc(C)c(Nc4nccc(-c5cccnc5)n4)c3)cc(C(F)(F)F)c2)cn1 [Nilotinib (AMN-107)]	0.805	0.93	0.865	1.05	0.763	0.935	0.86	0.772	0.992	0.843	0.849	1	0.906	1.11	0.757	0.929	0.767	0.823	0.805	0.78
C=CC(=O)Nc1cc(Nc2nccc(-c3cn(C)c4ccccc34)n2)c(OC)cc1N(C)CCN(C)C.CS(=O)(=O)O [Osimertinib mesylate]	1.13	1.27	1.01	1.05	1.15	1.36	1.17	1.32	1.07	1.46	1.22	1.48	1.23	1.33	1.27	1.09	1.67	2.28	1.47	3.45
CCC1(O)CC2CN(CCc3c([nH]c4ccccc34)C(C(=O)OC)(c3cc4c(cc3OC)N(C=O)C3C(O)(C(=O)OC)C(OC(C)=O)C5(CC)C=CCN6CCC43C65)C2)C1.O=S(=O)(O)O (stereo not given) [Vincristine sulfate]	1.14	1.75	0.984	2.03	0.841	1.6	0.755	1.5	0.731	1.63	0.488	1.21	0.139	0.683	0.0998	0.746	0.0704	0.673	0.0666	0.497
CNC(=O)c1cc(Oc2ccc(NC(=O)Nc3ccc(Cl)c(C(F)(F)F)c3)cc2)ccn1 [Sorafenib]	0.91	0.884	0.817	0.881	0.881	0.845	0.669	1.03	0.761	0.932	0.821	1.07	0.786	0.932	0.79	0.786	0.395	0.645	0.447	0.769
CN(C)CCOC(c1ccc(Cl)cc1)c1ccccn1.O=C(O)/C=C\C(=O)O (stereo not given) [CarbinoxaMine Maleate]	1.07	0.832	0.83	0.655	1.08	0.813	1.04	0.852	0.882	0.936	0.91	0.647	0.838	0.605	0.677	0.652	0.74	0.774	0.898	0.899
O=C(c1cc(Cc2n[nH]c(=O)c3ccccc23)ccc1F)N1CCN(C(=O)C2CC2)CC1	0.925	1.05	0.967	1.13	0.926	1.15	1	1.07	0.986	1.22	0.985	1.16	1.13	1.35	0.98	1.22	1.1	2.2	1.05	3.15
COc1ccc2cc(CCC(C)=O)ccc2c1 [Nabumetone]	1.05	1.3	1.23	1.05	1.64	1.07	1.16	1.05	1.14	1.13	1.18	0.999	1.25	1.08	1.14	1.12	1.09	0.987	1.03	1.04
O=C(O)c1cc(N=Nc2ccc(S(=O)(=O)Nc3ccccn3)cc2)ccc1O [Sulfasalazine]	0.831	0.998	0.814	1.13	1.21	0.904	1.08	0.883	0.818	0.807	0.859	0.771	0.685	0.726	0.686	0.793	0.718	0.95	0.712	0.619
COC1=C(OC)C(=O)C(CCCCCCCCCCO)=C(C)C1=O [Idebenone]	0.955	1.34	0.932	1.41	1.56	1.12	1.63	1.17	1.09	1.11	1.08	1.02	0.87	1.04	1.04	1.04	1.05	1.07	1.13	1.27
CC1=C(/C=C/C(C)=C/C=C/C(C)=C/C(=O)O)C(C)(C)CCC1 [Tretinoin]	1.17	1.37	1.17	1.22	0.86	1.24	0.979	0.955	0.807	0.911	1.04	1.27	1.34	1.31	0.812	1.3	0.902	0.864	0.754	0.774
CC(N)c1ccc(C(=O)Nc2ccnc3[nH]ccc23)cc1.Cl.Cl (stereo not given)	0.696	0.916	0.653	0.759	0.877	1.17	1.22	0.781	0.629	1.28	0.48	0.828	0.552	0.678	0.181	0.674	0.444	0.694	0.0865	0.465
CC(C)=CCCC(C)(OC1OC(CO)C(O)C(O)C1O)C1CCC2(C)C1C(O)CC1C3(C)CCC(O)C(C)(C)C3C(OC3OC(CO)C(O)C(O)C3O)CC12C (stereo not given) [Ginsenoside Rg1]	1.16	1.24	1.12	1.55	1.01	1.65	1.13	1.55	1.14	1.1	1.07	1.17	1.16	1.25	1.1	1.22	1.11	0.766	1.04	0.922
CC12CCC(CC1)C(C)(C)O2 [Eucalyptol]	0.939	1.06	1	0.943	1.02	0.86	1.35	0.942	0.817	0.879	1.03	0.828	1.11	0.907	0.979	0.993	0.964	1.04	1	0.938
CC(Oc1cc(-c2cnn(C3CCNCC3)c2)cnc1N)c1c(Cl)ccc(F)c1Cl [(S)-crizotinib]	0.847	0.945	0.763	1.05	0.862	1.6	0.727	1.29	0.766	0.893	0.916	1.13	0.952	1.05	1.01	1.09	0.929	1.29	0.949	1.13
O=C(Nc1ccc(O)cc1)c1ccccc1O [Osalmid]	1.15	1.43	1.17	1.63	1.46	1.05	1.34	1.15	1.24	1.23	0.983	1.03	0.9	1.01	0.761	0.78	0.792	0.917	0.654	0.933
Nc1nc(=O)c2c([nH]1)NCC(CNc1ccc(C(=O)NC(CCC(=O)[O-])C(=O)[O-])cc1)N2C=O.O.O.O.O.O.[Ca+2] (stereo not given) [Leucovorin Calcium Pentahydrate]	0.985	0.982	0.773	0.871	0.93	0.946	0.876	1.04	0.946	0.95	0.907	1.11	0.755	0.841	0.922	1.03	0.839	0.835	0.911	0.879
O=C(CCCCCCC(=O)Nc1ccccc1)NO [Vorinostat (SAHA, MK0683)]	0.961	1.15	0.953	1.36	0.732	1.78	1.2	1.18	1.62	2.2	1.02	1.48	1.07	1.83	0.521	1.63	0.105	0.495	0.0933	0.661
O=C(O)C1OC(Oc2cc3oc(-c4ccccc4)cc(=O)c3c(O)c2O)C(O)C(O)C1O (stereo not given) [Baicalin]	1.05	1.25	1.11	1.19	1.17	1.01	1.35	1.2	0.843	1.27	1.09	1.08	0.897	1.08	0.868	0.861	0.774	0.728	0.664	0.708
O=c1[nH]c(=O)n(C2CCCO2)cc1F (stereo not given)	1.16	1.14	1.19	1.19	0.861	1.08	1.02	0.769	0.869	0.924	0.985	1.01	1.34	1.1	0.954	1.13	0.941	0.768	0.97	0.871
CC(C)(C)c1nc(-c2cccc(NS(=O)(=O)c3c(F)cccc3F)c2F)c(-c2ccnc(N)n2)s1.CS(=O)(=O)O [Dabrafenib Mesylate]	0.619	0.785	0.479	0.699	0.516	0.824	0.72	0.888	0.656	0.931	0.541	0.812	0.165	0.329	0.156	0.304	0.205	0.254	0.21	0.326
COc1cc(-c2coc3cc4c(c(OC)c3c2=O)OCO4)cc(OC)c1OC [Irisflorentin]	1.08	0.992	1.23	0.826	1.12	0.885	1.16	0.869	0.802	1.25	1.1	0.739	1.02	0.576	0.682	0.608	0.814	0.82	0.592	0.666
CCN(CC)CCNC(=O)c1c(C)[nH]c(/C=C2\C(=O)Nc3ccc(F)cc32)c1C [Sunitinib]	0.929	0.95	0.847	0.984	0.847	1.38	0.983	1.37	0.888	1.02	0.86	0.845	0.703	0.832	0.818	0.834	0.73	0.787	0.744	0.782
